From ChEMBL document CHEMBL1201862, “PubChem BioAssay data set” (2004)
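Where inhibition never reached the appropriate level, the endpoint shown equals the highest concentration tested. Otherwise, values were interpolated linearly from a five-concentration, 48-hour dose response in 96-well plates. At the GI50, growth is halved.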 The source made the active and inactive calls. Cut-off read from the data, not from the text of the source: active = GI50 up to about 1.1 µM and inactive = higher.

test system: NCI-H322M; test: NCI-60 cell line screen, 48 h

Compound | GI50
Nc1cc(S(N)(=O)=O)ccc1SSc1ccc(S(N)(=O)=O)cc1N | inactive: > 100 µM
Nc1nc(SCc2ccccn2)c2ncn(C3CCCC3)c2n1 | inactive: > 100 µM
O=C(O)CSCC(=O)c1ccccc1 | inactive: > 100 µM
O=C(NCCCCCCCN1CCCCCCC1)C(C1CCCCC1)C1CCCCC1 | inactive: 13.3 µM
O=C(c1ccccc1)c1c(C(F)(F)F)[n+]([O-])c2cc(Cl)c(Cl)cc2[n+]1[O-] | inactive: 4.75 µM
O=C1C(CN2CCCC2)CCCC1CN1CCCC1 (configuration not stated) | inactive: 17.4 µM
CCc1ccccc1NC(=O)C(=O)C(C(=O)c1ccc(OC)cc1)c1ccc(OC)cc1 (configuration not stated) | inactive: > 100 µM
CCc1n[nH]c(=O)n1/N=C/c1c(O)ccc2ccccc12 | inactive: > 100 µM
CC12CCCCC1=[N+]([O-])C(C)(C)N2O (configuration not stated) | inactive: > 100 µM
COc1ccc2nc3ccccc3c(NCCCN(C)CCCl)c2c1 | active: 0.269 µM
O=C1Nc2c(Cl)cc(Cl)cc2/C1=N/NC(=O)c1ccncc1 | inactive: 58.1 µM
CC1=C(c2ccc(C)cc2)NC(=S)C(C)C(c2ccc(C)cc2)=N1 (configuration not stated) | inactive: > 100 µM
N#CCN1C(=O)c2cc([N+](=O)[O-])cc3cc([N+](=O)[O-])cc(c23)C1=O | inactive: 21.5 µM
Cc1ccc(S(=O)(=O)ON2C(=O)c3c(N)c(C#N)c(-c4ccccc4)c(-c4ccccc4)c3C2=O)cc1 | inactive: > 100 µM
CCOC(=O)/C(C(=S)NCc1ccccc1)=C(/N)N1CCCC1 | inactive: > 100 µM
CC(O)c1ccc(C(O)/C(=N\NC(=O)c2ccncc2)c2nc3ccc([N+](=O)[O-])cc3nc2O)cc1 (configuration not stated) | inactive: 95.3 µM
O=C1Nc2ccc(Br)cc2/C1=N/N1C(=O)C(=O)N(C2CCCCC2)C1=S | inactive: 6.76 µM
C=CCN1C(=O)CC(=O)N(NC2=NNC3(C(=O)N2)c2ccccc2-c2ccccc23)C1=S | inactive: 30.9 µM
COc1cc(NCc2ccc3nc(-c4ccccc4)c(N)nc3c2)cc(OC)c1OC | inactive: 62.7 µM
O=C1C[C@@H]2[C@@H](CCC23CCCC3)N1 | inactive: > 100 µM
O=C1C=CC2OC(c3ccccc3)C(O)C2O1 (configuration not stated) | inactive: 8.24 µM
CC1(C)OC(CP(c2ccccc2)c2ccccc2)C(CP(c2ccccc2)c2ccccc2)O1 (configuration not stated) | inactive: 1.44 µM
Cc1nc2c(Br)cc(Br)cc2c(=O)n1-c1ccccc1N | inactive: > 100 µM
COc1ccc(CCn2ccc(C)n2)c(OC)c1 | inactive: > 100 µM
COC(=O)[C@H](C)[C@@H]1CC[C@](C)(CCC2=C(C)CCCC2(C)C)OO1 | inactive: > 25 µM

Compound | GI50
Cc1cc(CNC(=O)OCc2ccccc2)c(C)c2c1Oc1ccccc1O2 | inactive: > 100 µM
COC(=O)/C=C/c1ccc(OP(=O)(O)O)c(OC)c1 | inactive: > 100 µM
CNCc1cc(OC)ccc1-c1ccc(OC)c(OC)c1OC | inactive: > 81.1 µM
O=c1c2ccccc2nc(-c2cccc(Cl)c2)n1NCC1(O)OCC(O)C(O)C1O (configuration not stated) | inactive: > 100 µM
N=C(N)NS(=O)(=O)c1ccc(NC(=O)c2cccc3c(O)c4ccccc4nc23)cc1 | inactive: > 100 µM
O=C(Cn1c2c(c3ccccc31)CCCC2)N1CCCC1 | inactive: > 100 µM
O=C(O)C1=C(C(=O)Nc2ccccc2)C2C=CC1C2 (configuration not stated) | inactive: > 100 µM
CCCCCCCCCC1(N=[N+]=[N-])C(=O)c2ccccc2N(C)C1=O (configuration not stated) | inactive: > 100 µM
N=C(N)NCCCC(Nc1c2ccccc2nc2ccccc12)C(=O)O (configuration not stated) | inactive: > 100 µM
O=C1CCC2(c3ccccc3)Nc3ccncc3N12 (configuration not stated) | inactive: > 10 µM
CC(=O)Nc1nc(Cl)cc(NCC2(CO)CCC2)n1 | inactive: > 100 µM
CCN(CC)CCN1C(=O)c2c(c(-c3ccccc3)c3ccccc3c2-c2ccccc2)C1=O | inactive: > 100 µM
Oc1cccc2c1NC1=C(CCC/C1=C\c1ccccc1)C2 | inactive: > 100 µM
COC(=O)CCC1(C)C2CCC1(C)/C(=N/O)C2 (configuration not stated) | inactive: > 100 µM
CSc1ccc(Cc2cc(C(C)(C)C)cc(C(C)(C)C)c2O)cc1 | inactive: 18.1 µM
CCC1CCC2c3c([nH]c4ccc(C)cc34)C3C(=O)N(N(C)C)C(=O)C3C2C1 (configuration not stated) | inactive: 48.1 µM
S=C1CC(c2ccc(Cl)cc2)Sc2ccccc2N1 (configuration not stated) | inactive: 42.5 µM
O=C1CN(c2ccccc2)C(=O)C1C(=O)Nc1ccc(Cl)c(Cl)c1 (configuration not stated) | inactive: 1.55 µM
O=c1ccn(-c2ccccn2)c(=O)n1-c1ccccn1 | inactive: > 100 µM
COc1ccccc1/C=C/C(=O)c1sc(-c2cccnc2)nc1C | inactive: > 100 µM
Cc1ccc(S(=O)(=O)Nn2c(O)c(C#N)c(-c3ccc(N(C)C)cc3)c(C#N)c2=O)cc1 | inactive: > 50 µM
C/C(=N/OCCC(=O)O)C1CC1 | inactive: > 100 µM
[O-][n+]1c2ccccc2[n+]([O-])c2ccccc21 | inactive: 18.6 µM
CCN(CCCl)c1cc(CN(C)C)cc(NC(=O)c2ccc(C(=O)Nc3cccc(CN(C)C)c3)cc2)c1 | active: 0.771 µM
CC(=O)OCC(OC(C)=O)C(OC(C)=O)C(OC(C)=O)C(=O)CNn1c(-c2ccccc2)nc2ccc(Br)cc2c1=O (configuration not stated) | inactive: > 100 µM

Compound | GI50
CS(=O)(=O)Nc1ccc(NCc2c[nH]c3ccc4ncccc4c23)cc1 | inactive: 63.5 µM
CCCC(O)c1cn(C(NC(=O)c2ccccc2)P(=O)(OCC)OCC)nn1 (configuration not stated) | inactive: > 100 µM
O=C(OCN1C(=O)C2C3C=CC(C2C1=O)C1C2C(=O)N(COC(=O)C4CCCN4)C(=O)C2C31)C1CCCN1 (configuration not stated) | inactive: > 100 µM
COc1ccc(Cc2c3cc(O)c([O-])cc3cc[n+]2C)cc1 | inactive: 21 µM
Cc1cc2c(c3c1c1ccccc1n3C)C(=O)C=CC2=O | inactive: 20.5 µM
NC(=S)N/N=C1/C(=O)N(c2ccccc2)C(=O)C1C(=O)Nc1ccccc1 (configuration not stated) | inactive: > 100 µM
FC1(F)SC2CCCCCCCCCCC2C1(F)F (configuration not stated) | inactive: > 100 µM
COC1=C2CC(C)CC(OC)C(O)C(C)/C=C(\C)C(OC(N)=O)C(OC)/C=C\C=C(/C)C(=O)NC(=C(/C=N/C(C)(C)C)C1=O)C2=O (configuration not stated) | inactive: 6.05 µM
O=C(NNc1nc(-c2ccccc2)cs1)Nc1ccccc1 | inactive: 25 µM
Cc1ccccc1C(=O)Oc1ccc(Oc2ccccc2)cc1 | inactive: > 100 µM
Cc1ccc(S(=O)(=O)C(C#N)c2nc3ccccc3nc2-n2ccnc2)cc1 (configuration not stated) | inactive: > 100 µM
COC1CC(O[C@H]2CC[C@@]3(C)[C@@H](CC[C@]4(O)[C@@H]3CC[C@]3(C)[C@@H](C(C)=O)[C@H](OC(=O)CC(C)C)[C@@H](OC(=O)c5ccccc5)[C@@]34O)C2)OC(C)C1OC1CC(OC)C(OC2OC(C)C(O)C(OC)C2O)C(C)O1 (some centres not stated) | inactive: 10.9 µM
c1ccc2c(c1)ncn2C1CCCCO1 (configuration not stated) | inactive: > 100 µM
CCCCCCCCCCCCCCCCCc1nnc(N)o1 | inactive: > 100 µM
Cc1cc(C)c(C(=O)/C(=C/c2ccccc2)c2ccccc2)c(C)c1 | inactive: > 100 µM
CS(=O)(=O)NC12CCC(c3ccccc31)c1ccccc12 | inactive: > 100 µM
CCOC(=O)C1OC(=O)CC1C1(C(=O)OCC)C=CC(=O)O1 (configuration not stated) | inactive: > 100 µM
CCN(CC)CCC(=O)Nc1ccc2c(c1)C(=O)c1ccc(NC(=O)CCN(CC)CC)cc1C2=O | inactive: 3.81 µM
Cc1cc(=O)n(-c2ccccc2)c(=O)o1 | inactive: > 100 µM
COc1ccc(Cn2nc(OCc3ccccc3)c3cc([N+](=O)[O-])ccc32)cc1 | inactive: > 100 µM
C/C(=N\NC(=S)NCCCCNC(=S)N/N=C(\C)c1ccccn1)c1ccccc1 | active: 1.08 µM
COc1cnnc2c(C)c(-c3ccccc3)nn12 | inactive: > 75.5 µM
COCCN(CCNC(=O)c1cccc2c(N)c3cccc(C)c3nc12)CCOC | active: 0.787 µM
C#CC1/C(=C\C(=O)OC)CCCC1O (configuration not stated) | inactive: > 100 µM
COCOCC/C=C/C=O | inactive: > 100 µM

Compound | GI50
CCN(CC)CCCCC1CCN(CC(=O)N2CC(C)C(=O)Nc3ccccc32)CC1 (configuration not stated) | inactive: > 100 µM
CN(C)CCCNC(=O)N/N=C/c1ccc(O)cc1 | inactive: > 100 µM
CN(C)c1snc2c1c(=O)n(C)c(=O)n2C | inactive: > 100 µM
COc1cc(/C=C/C(=O)CC(=O)/C=C/c2cc(OC)c(O)c(OC)c2)cc(OC)c1O | inactive: 8.55 µM
Cc1ccnc(NC(=S)Nc2ccc([N+](=O)[O-])cc2)c1 | inactive: > 100 µM
O=C(CSCC(=O)N/N=C\c1ccc(F)cc1F)N/N=C\c1ccc(F)cc1F | inactive: > 100 µM
CCCCNC(=O)N/C=C1\C(=O)Oc2ccccc2C1=O | inactive: 29.7 µM
N#Cc1c(-c2ccc(Cl)cc2)c2c(n(C3OC(CO)C(O)C(O)C3O)c1=S)CCCC2 (configuration not stated) | inactive: 47.3 µM
COC(=O)c1cc2c(cc1CC1Cc3cc4c(cc3C1=O)CCC4)CCC2 (configuration not stated) | inactive: 92.9 µM
Cc1ccc(NC(=O)CC2C(=O)Nc3ccccc3[S+]2[O-])c(C)c1 (configuration not stated) | inactive: 29.5 µM
O=C(/C=C\Nc1ccccc1O)C(Cl)(Cl)Cl | inactive: 68.9 µM
CC(=O)NNc1nc(C)c(C(=O)NNC(=O)C(=O)Nc2ccc([N+](=O)[O-])cc2[N+](=O)[O-])s1 | inactive: > 100 µM
COc1ccc(C(SCCO)(c2ccccc2)c2ccccc2)cc1 | inactive: 12.4 µM
C/C(=N\NC(N)=S)c1ccc(C)cc1C | inactive: > 100 µM
CC(C)(C)C(=O)CP(=O)(O)O | inactive: > 100 µM
O=S(O)CCCCCSSSCCCCCS(=O)O | inactive: > 100 µM
CCCCCCCCCCCCSC(=S)c1c(C)[nH]n(-c2ccccc2)c1=O | inactive: 10.5 µM
O=C1Cc2c([nH]c3c(Br)cccc23)-c2ccccc2N1 | inactive: > 100 µM
O=c1cc(-c2ccccc2)oc2ccc(-c3ccc4oc(-c5ccccc5)cc(=O)c4c3)cc12 | inactive: 23.8 µM
Cc1cc2c(cc1C)[n+]([O-])c(N1CCN(c3ccc([N+](=O)[O-])cc3)CC1)c(C#N)[n+]2[O-] | inactive: > 100 µM
COc1cccc2cc(C(=O)O)c(=O)oc12 | inactive: > 100 µM
Nc1nc(O)c2nc(N)n(Cc3ccccc3)c2n1 | inactive: 39.4 µM
